Results published in PubChem BioAssay AID686978 (National Center for Advancing Translational Sciences (NCATS), 2013).
The whole screen tested about 420,000 compounds, of which about 64,000 (15%) were called active. The inconclusive results got no clear call from the source; some entries with a clear call stand among them for comparison. Calls follow the shape of the dose curve; as a rule, active = well fitted inhibition curve with a large enough effect; inconclusive = small, poorly fitted or top-dose-only effect; inactive = flat fitted curve, though single readings scatter. No potency is given beside an inconclusive call; the fits are too rough.

Assay: qHTS for Inhibitors of human tyrosyl-DNA phosphodiesterase 1 (TDP1): qHTS in cells in absence of CPT; also: nearly all actives have a fitted effect of over 55% in size
Details: DT40 Tdp1-/- hTDP1 cells, no CPT, ATP luminescence, 48 h; activity change, negative = growth inhibition: at 46.2 µM (top of the series)
How it was run: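 A cellular qHTS used chicken DT40 cells lacking endogenous Tdp1 but carrying stably transfected human TDP1. Compounds were applied without camptothecin, and cell growth kinetics were judged by ATP-dependent luminescence after ≥48 hr.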
% is scaled to controls: 0 for no effect and ±100 for the full control effect; potency is read from the fitted curve at half-maximal effect; tags tell the direction and shape of the fitted curve.

Row | SMILES | Potency | activity change, negative = growth inhibition
1 | C=CCn1c(=NC(=O)C2CCCCC2)sc2cc(NC(C)=O)ccc21 | inconclusive [inhibitor, partial curve] | 
2 | CCN(CC)CCCNC(=S)N(Cc1cccnc1)Cc1cc2cccc(C)c2[nH]c1=O |  | inactive: -19.6%
3 | C/C(=N\Nc1nccnc1Cl)c1ccc(O)cc1 |  | inactive: -11.3%
4 | Cc1ccc(C)c(OCCCCCn2ccnc2)c1 | inconclusive [inhibitor, single point] | 
5 | CC(C)CNC(=S)NC1CC2CCC(C1)N2Cc1ccccc1 (stereo unspecified) | inconclusive [inhibitor, partial curve] | 
6 | CCCCN(CCCC)C(=O)CN(C)S(=O)(=O)c1ccc2c(c1)c(=O)n(C)c(=O)n2C | inconclusive [inhibitor, single point] | 
7 | O=C(Nc1ccccc1)Nc1ncc([N+](=O)[O-])s1 | active: 4.61 µM | 
8 | CCN(CC)S(=O)(=O)c1ccc(OC)c(NC(=O)C(C)Oc2ccc3c(C)cc(=O)oc3c2)c1 (stereo unspecified) | active: 18.4 µM | 
9 | O=C(Nc1cc(F)ccc1F)C1CCN(c2nc3ccccc3n3cccc23)CC1 | inconclusive [inhibitor, full curve, poor fit] | 
10 | Fc1ccc(-c2cc(C(F)(F)F)nc(NCc3cccs3)n2)cc1 | inconclusive [inhibitor, single point] | 
11 | O=C(COc1ccc(Br)cc1)NCCCN1CCCC1=O |  | inactive: 23.9%
12 | CC(=O)N1CCOc2ccc(S(=O)(=O)N3CCC(C(=O)NCc4ccc(F)cc4)CC3)cc21 |  | inactive: 4.24%
13 | COCCN1C(=O)c2oc3c(C)cc(C)cc3c(=O)c2C1c1cccc(O)c1 (stereo unspecified) |  | inconclusive: -33.2% [inhibitor]
14 | CCOc1ccc(C(=O)NCC(C)C)cc1 |  | inactive: -1.15%
15 | CCc1nnc2n1N=C(c1ccc(-c3cc(Cl)ccc3Cl)o1)CS2 | inconclusive [inhibitor, partial curve] | 
16 | Cc1ccc(NC(=O)/C=C/c2ccc([N+](=O)[O-])s2)cc1 | active: 3.66 µM | 
17 | CC1(C)OC2OC(C(=O)N/N=C/c3cc(Br)ccc3O)C3OC(C)(C)OC3C2O1 (stereo unspecified) | active: 14.6 µM | 
18 | COC(=O)[C@@H]1C[C@@]2(O)[C@@H](O)[C@@H](O)[C@@H](O)C[C@H]2N1Cc1ccc(C)s1 |  | inactive: -22.7%
19 | Cc1ccc2[nH]c(=O)c(N3CCOCC3)c(-c3ccccc3)c2c1 | inconclusive [inhibitor, single point] | 
20 | Cc1ccc(-n2c(=O)c3c(c4cc(C)ccc4n3C)n(CC(=O)NCc3ccccc3Cl)c2=O)cc1 |  | inactive: -4.5%
21 | O=C(C1CCN(Cc2cn[nH]c2-c2ccc(F)cc2F)CC1)N1CCOCC1 |  | inactive: 3.25%
22 | COc1ccc(-n2c(SCC3CNC(=O)O3)nnc2-c2ccc(Cl)cc2)cc1 (stereo unspecified) | inconclusive [inhibitor, single point] | 
23 | COc1cc(Br)c(CNc2cc(C)ccc2C)cc1OC | active: 16.4 µM | 
24 | Cc1cccc(C(=O)Nc2ccc(-c3nc4ccccc4s3)cc2Cl)c1 | inconclusive [inhibitor, single point] | 
25 | CCCCNC(=O)C(CC)Sc1nnc(-c2cccc(F)c2)c(-c2cccc(F)c2)n1 (stereo unspecified) | inconclusive [inhibitor, single point] | 
26 | CCOc1ccccc1C(=O)NCC(=O)OCc1c(C)noc1C | inconclusive [inhibitor, single point] | 

Row | SMILES | Potency | activity change, negative = growth inhibition
27 | OCC1(Cc2ccc(Cl)cc2)CCN(Cc2ccc(Oc3ncccn3)cc2)CC1 |  | inactive: -19%
28 | COc1ccc2oc(=O)cc(CN3CCN(c4ccc(F)cc4)CC3)c2c1 | active: 23.1 µM | 
29 | CCCCOC(=O)c1ccc(Nc2ncnc3[nH]ncc23)cc1 | inconclusive [inhibitor, partial curve] | 
30 | CCN(CC)C(=S)Nc1ccc(OC)cc1 |  | inconclusive: -6.65% [inhibitor]
31 | CCOC(=O)C1(C)CCCN(C(=O)c2cccc(Cl)c2)C1 (stereo unspecified) | inconclusive [inhibitor, single point] | 
32 | C[C@H](CO)N1C[C@H](C)[C@@H](CN(C)C(=O)Nc2ccc3c(c2)OCO3)Oc2ccc(NS(=O)(=O)c3cn(C)cn3)cc2C1=O |  | inactive: -0.41%
33 | COC(=O)c1ccccc1Sc1ncnc2onc(C)c12 | inconclusive [inhibitor, single point] | 
34 | Cc1ccc(OCCCN2CCC(C(O)(c3ccccc3)c3ccccc3)CC2)cc1 | inconclusive [inhibitor, single point] | 
35 | Cc1cccc(C(=O)OC(C)C(=O)NCC2CCCCC2)c1O (stereo unspecified) |  | inactive: -2.57%
36 | CCCCCCCCNS(=O)(=O)CCNCCCC | active: 16.4 µM | 
37 | OC(Cn1cnnc1)c1ccccc1 (stereo unspecified) |  | inconclusive: -33.6% [inhibitor]
38 | Cc1cccc(NC(=O)Cn2c(=O)n(-c3ccccc3Cl)c(=O)c3c(C)c(C(=O)N(C)C)sc32)c1 | inconclusive [inhibitor, single point] | 
39 | COC(=O)/C=C1\OCc2c(F)cccc21 |  | inactive: -4.2%
40 | O=C(Nc1ccc2c(c1)OCO2)c1ccc2sc([C@@H]3O[C@H](CO)[C@H](O)[C@H](O)[C@H]3O)nc2c1 |  | inactive: 0.646%
41 | CC(C)(C)OC(=O)NCCCC[C@H](NC(=O)c1[nH]cnc1C(=O)N[C@@H](Cc1ccccc1)C(=O)OCc1ccccc1)C(=O)OC(C)(C)C | inconclusive [inhibitor, single point] | 
42 | C(=C\c1nc2ccccc2s1)/c1ccc2c(c1)OCO2 | active: 11.2 µM | 
43 | CCOC(=O)c1ccc(NC(=O)CN(c2ccc(C)cc2)S(=O)(=O)c2c(C)noc2C)cc1 | inconclusive [inhibitor, single point] | 
44 | O=[N+]([O-])c1cccc(/C=N\N=C2c3ccccc3-c3ccccc32)c1O | active: 16.4 µM | 
45 | CCN(CC)S(=O)(=O)c1ccc(NC(=S)NC(=O)C2CCC2)cc1 | inconclusive [inhibitor, single point] | 
46 | S=C(NCCN1CCCCC1)Nc1ccc(Br)cc1 | inconclusive [inhibitor, single point] | 
47 | CC(C)CCNC(=O)C1CCCN1C(=O)NC1CCCCC1 (stereo unspecified) |  | inactive: -6.62%
48 | CCOC(=O)C(C(=O)OCC)c1c([N+](=O)[O-])c(=O)n2c3c(cccc13)CCC2 | active: 20.6 µM | 
49 | O=C(NCCc1ccccc1)c1cc(=O)[nH]c2ccccc12 |  | inactive: -0.564%
50 | NC(=S)NN=Cc1c[nH]c2nccnc12 | active: 13 µM | 
51 | C=CCNC(=S)NNc1nc(Nc2ccccc2)nc(N2CCCCC2)n1 | active: 8.2 µM | 
52 | CC(=O)c1cccc(NC(=O)CC2S/C(=N/N=C3CCCCCC3)NC2=O)c1 (stereo unspecified) | inconclusive [inhibitor, partial curve, poor fit] | 

Row | SMILES | Potency | activity change, negative = growth inhibition
53 | Cc1cc(C)cc(N2CC(c3nc(-c4ccccc4C)no3)CC2=O)c1 (stereo unspecified) | inconclusive [inhibitor, single point] | 
54 | CC(C)(C)C(=O)Nc1ccnn1C1CCN(C(=O)c2ccc(Cl)cc2F)CC1 | inconclusive [inhibitor, partial curve] | 
55 | O=C(N/N=C/c1c(O)ccc2ccccc12)c1[nH]ncc1Br | active: 4.61 µM | 
56 | COc1cccc(CN2CCSCC2)c1OC |  | inactive: 8.02%
57 | C=CCNC(=S)N1CCN(C2CCCCC2)CC1 |  | inactive: -0.301%
58 | CC1CN(Cc2nnc(-c3ccccc3)o2)CC(C)O1 (stereo unspecified) |  | inactive: -1.87%
59 | O=C(C[n+]1csc2ccccc21)c1ccc(I)cc1 | active: 11.2 µM | 
60 | Cc1ccccc1CS(=O)(=O)CCC(=O)NCCCN1CCN(c2ccccc2F)CC1 | inconclusive [inhibitor, partial curve] | 
61 | COc1cc(/C=C2/NC(=O)N(Cc3ccccc3F)C2=O)cc(OC)c1O | inconclusive [inhibitor, single point] | 
62 | COc1ccc(CCNCc2ccccc2N2CCCC2)cc1 | inconclusive [inhibitor, single point] | 
63 | O=C(CSc1nc2ccccc2o1)Nc1nc(-c2ccccc2)cs1 | inconclusive [inhibitor, partial curve] | 
64 | COc1ccccc1C(=O)N1CCN(C(=O)[C@H]2O[C@@H](n3ccc(=O)[nH]c3=O)[C@H](O)[C@@H]2O)CC1 |  | inactive: -8.69%
65 | C=C1C(=O)[C@]23C[C@H]1CCC2[C@]1(C)CCC[C@@](C)(C(=O)O)C1C[C@@H]3O (stereo partly specified) | active: 1.64 µM | 
66 | Cc1ccc(/C=N/NC(=O)COc2ccc(Cl)c(C)c2)o1 |  | inactive: 7.37%
67 | Cc1ccc(NCc2ccc(Cl)nc2)c(NCc2ccc(Cl)nc2)c1 | inconclusive [inhibitor, single point] | 
68 | CCC(C)c1ccc(S(=O)(=O)N2CCN(CC(O)CN3CCOCC3)CC2)cc1 (stereo unspecified) |  | inactive: 0.947%
69 | CC(=O)c1cccc(OCC(=O)N(C)CC(=O)Nc2ccc(F)cc2)c1 |  | inactive: 2.18%
70 | CN(Cc1ccc(Cl)c(Cl)c1)C(c1cc2ccccc2o1)c1nnnn1C(C)(C)C (stereo unspecified) | active: 20.6 µM | 
71 | Cc1ccccc1S(=O)Cc1ccc(C(=O)N2CCN(c3cccc(C)c3C)CC2)o1 (stereo unspecified) | active: 0.82 µM | 
72 | C/C(=N/N=C1/NC(=O)CC(C(=O)Nc2ccccc2)S1)c1cccs1 (stereo unspecified) |  | inactive: 10.8%
73 | COc1cc(/C=C(/C#N)c2nc3ccccc3c(=O)[nH]2)ccc1O |  | inactive: -24%
74 | O=C(COC(=O)Cc1ccc(S(=O)(=O)N2CCCCC2)s1)Nc1ccc2c(c1)OCO2 | inactive | 
75 | Cn1c(=O)c2c(nc(CN3CCN(C(=O)c4ccco4)CC3)n2Cc2ccccc2F)n(C)c1=O |  | inconclusive: -36.1% [inhibitor]
76 | CN(C(=O)c1cccc(NC(=O)Cc2ccc(NC(=O)C3CCN(C(=O)C4CCCC4)CC3)cc2)c1)C1CCCCC1 | inconclusive [inhibitor, single point] | 
